Experimental data reported in ChEMBL document CHEMBL5308541, “MAIP: An Open-Source Tool to Enrich High-Throughput Screening Output and Identify Novel, Druglike Molecules with Antimalarial Activity” (ACS Med Chem Lett, 2023).
Screen size: about 150,000 compounds; about 540 (0.36%) showed an effect of 50% or more. The list shows a part of the results.

System: Plasmodium falciparum
Test: Primary screen in NF54 nanoGlo assay, in single point, at 2uM, 72h; a lower Z score goes with more inhibition
Type: functional, Erythrocyte
Conditions: timepoint 72 hour

Compound | % Inhibition [%] | Z score
OC[C@H]1CCCN(CCNCc2ccc3ccn(Cc4ccccc4)c3c2)C1 | 1 | -0.24
O=C(NCCNS(=O)(=O)c1cccs1)[C@H]1CC12CCS(=O)(=O)CC2 | 2 | -0.34
CC(NCCC(=O)N1CCN(C)CC1)C1CCCN(C2CCC2)C1 (stereo unspecified) | -4 | 0.78
N#Cc1c(-c2cccc(CN3CCOCC3)c2)cc(-c2ccc[nH]2)nc1N | 9 | -1.5
CCCc1cc(C(=O)N[C@@H](C(=O)O)c2ccc(F)cc2)[nH]n1 | 4 | -0.82
Cc1ccncc1CC(=O)NCC1(O)CCN(C(=O)Cc2cnccc2C)CC1 | -12 | 1.85
O=C1C[C@H](CN2CCC(N3CCN(CCO)CC3)CC2)CN1c1ccccc1 | -8 | 1.62
c1ccc(-c2nc3c(c(NC[C@@H]4OCCc5ccccc54)n2)CCNCC3)nc1 | 0 | -0.09
C[C@]1(NC(=O)Nc2c(F)cccc2F)CCOC1=O | -7 | 1.02
Nc1ccc(-c2ccc(C(=O)NC3CCN(Cc4ccco4)CC3)cc2)cn1 | -9 | 1.5
Cc1cc(NC[C@H]2CC(=O)N(C3CCCC3)C2)c2ccccc2n1 | 3 | -0.45
Cc1cc(N2CCN(CC(O)c3ccccc3)C(C)C2)nc(N)n1 (stereo unspecified) | 8 | -1.8
CC(C)c1noc(CCNc2nc(-c3cccnc3)nc3c2CCNC3)n1 | 3 | -0.53
O=C(Nc1ccc(NC2CCOCC2)cc1)c1c[nH]c2ncccc12 | -1 | 0.22
OC1(c2ccc(Cl)cc2)CCN(C[C@@H]2CCCN3CCCC[C@H]23)CC1 | 82 | -16.27
CCc1ncc(-c2c(-c3ccccc3)ncn2[C@H](c2nccn2C)C2CC2)cn1 | -5 | 1.05
CC(=O)Nc1cc(CNCc2cccc(-c3ccccc3C)c2)cc(C(=O)N2CCN(C)CC2)c1 | -9 | 1.54
CC1CN(c2ccc(NC(=O)c3ccccc3-c3nc(C(C)C)no3)cn2)CC(C)O1 (stereo unspecified) | -3 | 0.55
O=C(Nc1cnc(N2CCNCC2)c(C(=O)N2CCCCCC2)c1)c1ccccc1 | -8 | 1.38
Cc1n[nH]c2ncc(CNc3ccc(N4CCCC4)cn3)cc12 | -8 | 1.64
FC(F)Oc1cc(-c2nc(-c3cccnc3OC3CCCC3)no2)ccn1 | -15 | 2.29

Compound | % Inhibition [%] | Z score
c1nnc(CN2CCN(C[C@@H]3CCCN4CCCC[C@H]34)CC2)[nH]1 | -2 | 0.35
CCOc1cc(NCCc2nc(-c3ccncc3)cs2)ncn1 | -4 | 0.89
Cc1cc(N2CCC(N3CCC[C@H](C(=O)NCCc4ccccc4)C3)CC2)nc(N)n1 | -12 | 2.48
CC(C)c1ccnc(N2CCN(CC(=O)Nc3cnccn3)CC2)n1 | 1 | -0.16
Cc1cccc(N(C(=O)CCn2ncn(C)c2=O)C(C)C)c1 | -10 | 1.48
C[C@@H](CNC(=O)NC1(CO)CCCC1)c1ccc(Cl)cc1 | -7 | 1.21
Cc1ccccc1-c1cccc(N2CCC(NCC3CCNCC3)CC2)c1 | 98 | -19.56
COc1ccc(CN(C)Cc2c[nH]nc2C)cc1Cl | -4 | 0.79
O=C(Nc1cnn(CC(F)(F)F)c1)N1CCC(c2c[nH]c3ncccc23)CC1 | -1 | 0.17
CCN1CCN(CCCNC(=O)c2ncoc2-c2ccccc2C(=O)N2CCCCC2)CC1 | -5 | 0.81
COCCN1CCN(C(=O)Nc2ccc3nc(C(F)(F)F)oc3c2)CC1 | -9 | 1.53
O=C(NC1CCN(CC2CCCCC2)CC1)[C@@H]1CN(S(=O)(=O)c2ccccc2Cl)CCO1 | -11 | 1.81
CC[C@H](C)NC(=O)c1cccc(Nc2ccnc(-c3cccc(F)c3)n2)c1 | -7 | 1.15
C[C@@H](c1ccc(-c2ccccc2CN2CCNCC2)cc1)N1CCOCC1 | 12 | -2.09
Cc1cc(Nc2nccn(C)c2=O)c2ccccc2n1 | 0 | -0.07
O=C(NCCN1CCCCC1)c1cccc(-c2cnc3ccc(F)cn23)c1 | 34 | -5.92
CCOC1CN(C(=O)c2ccc(Cl)c(C)c2)CC1O (stereo unspecified) | 3 | -0.61
CCN(Cc1nnc(-c2cccnc2)o1)CC1CCN(C2CCN(C)CC2)CC1 | 4 | -0.59
Fc1cccc2[nH]c(CN[C@H]3CCc4[nH]ncc4C3)cc12 | 4 | -0.95
CC(C)Nc1cc(-c2cc(OC(F)(F)F)ccc2O)ncn1 | 1 | -0.31
CCN1CCN(CCNCc2ccc(Cl)c(C(F)(F)F)c2)CC1 | 9 | -1.53

Compound | % Inhibition [%] | Z score
COc1cccc(C2=CCN(C(=O)c3cc4n(n3)CCC4)C2)c1 | -16 | 2.48
Cc1cccc2sc(NCc3cccc(N4CCOCC4)n3)nc12 | -4 | 0.61
O=S(=O)(N[C@H]1CCN(c2ccccn2)C1)c1ccc(-c2cccc(C(F)(F)F)c2)cc1 | -8 | 1.41
Cn1nnc(CNC2(c3ccc(C#N)cc3)CCOCC2)n1 | -9 | 1.89
OC1CN(c2ncnc3ccsc23)CC1Cc1ccnc2ccccc12 (stereo unspecified) | -2 | 0.5
Cn1cc(C(=O)N2CCc3[nH]c4ccccc4c3C2)c(-c2ccc3c(c2)OCCCO3)n1 | -4 | 0.53
CCc1cccc(Nc2cc(C(=O)OC)nc3c(F)cccc23)c1 | -2 | 0.4
O=C(c1cc2occc2[nH]1)N1CCC[C@H](NCc2ccccc2)C1 | 2 | -0.36
CC(C)C1COCCC1Nc1cnn(-c2ccncc2)c1 (stereo unspecified) | 3 | -0.66
Cc1cc(N2CCCN(C3CCN(C(=O)c4ccncc4)CC3)CC2)ccn1 | -2 | 0.42
OC1CCN(Cc2cccc(NCc3cccc(OCCn4ccnc4)c3)c2)CC1 | -3 | 0.55
COc1cc(-c2c(C#N)c(N)nc3c2c(=O)nc2sccn23)ccc1OCc1cccc(F)c1 | -4 | 0.63
CCCN1CCC(N2CC(c3cccnc3)C(c3nc(C4CCCC4)no3)C2)CC1 (stereo unspecified) | 24 | -4.28
Cc1cnc(C(C)(C)NS(=O)(=O)c2cnn(C)c2)s1 | -10 | 1.48
O=C(Cc1ccc(N2CCC(NCCc3cccc4ccccc34)CC2)cc1)N1CCC(O)CC1 | -8 | 1.46
COc1ccc(CNC2CCN(Cc3cccc(F)c3)CC2)cn1 | -4 | 0.76
CCc1nc(N)nc(NCCCc2nc(C)cs2)c1C | -2 | 0.36
c1c(CN2CCCN(CCCN3CCCC3)CC2)nn2c1CNCC2 | 4 | -0.88
N#Cc1ccc(C#Cc2ccc(C#Cc3ccc(C#N)c(C#N)c3)cc2)cc1C#N | -1 | 0.21
CN1CCS(=O)(=O)CC1CC(=O)N[C@@H]1C[C@H]1c1cccc(Cl)c1 (stereo partly specified) | -9 | 1.84
OC[C@H]1c2cn[nH]c2CN1CCOCC1CCC1 | 0 | -0.02

Compound | % Inhibition [%] | Z score
CNC(=O)[C@H](Cc1c[nH]cn1)NC(=O)CC1CCCCC1 | 2 | -0.32
CC[C@]1(CCc2ccccc2)CCCN1C(=O)c1c[nH]c(=O)cc1C | 14 | -2.39
COc1ccc(CNC[C@H]2CCN(CC(F)(F)F)C2)cc1Br | -7 | 1.11
c1ccc2oc(N3CCC(CNc4ncnc5cnccc45)CC3)nc2c1 | 3 | -0.43
CC1OC2(CCN(C)CC2)CC1NCCCNc1ccccc1 (stereo unspecified) | -4 | 0.59
N#Cc1ccc(NC2CCOC(C3CC3)C2)nc1NC1CCOC(C2CC2)C1 (stereo unspecified) | -2 | 0.35
O=C(Nc1cnccc1N1CCCCC1)c1cc(=O)[nH]c2ccc(Cl)cc12 | 3 | -0.5
Cc1nc(NCCNC(=O)Cc2c[nH]c3ccccc23)cc(N2CCCC2)n1 | 6 | -0.95
O=C(Nc1cccc(OCc2nnc(-c3ccc(Cl)cc3)o2)c1)c1ccc2cc[nH]c2c1 | -3 | 0.6
c1sc(CN2CCC[C@H](CN3CCCCC3)C2)cc1CN1CCCC1 | 1 | -0.17
CC(C)[C@@H](C(=O)NCc1ccc(O)nc1)N1CCCCC1 | -7 | 1.23
CN(Cc1cc(-c2ccncc2)no1)C(=O)Cc1n[nH]c2ccccc12 | -1 | 0.27
CCON1CCC(NCCc2ccnc3ccccc23)CC1 | -6 | 1.04
Cc1ccc(-c2cc(C(=O)N3CCN4C(COCC4C4CC4)C3)[nH]n2)cc1 (stereo unspecified) | 13 | -2.27
Cn1ccnc(N2CCC(NCc3ccc4cn[nH]c4c3)CC2)c1=O | 4 | -0.77
Fc1ccc(CN2CCCN(c3nc(C(F)(F)F)nc4cnccc34)CC2)cc1 | -7 | 1.03
FC(F)Oc1ccc(-c2cc(-c3ccc(OC(F)F)cc3)[nH]n2)cc1 | 2 | -0.31
COc1ccc2nc(NC(=O)N(C)Cc3nc(C)cs3)sc2c1 | -6 | 1.16
CNc1ncc(C(=O)NC2CCN(CCN(C)C)CC2)cn1 | 1 | -0.09
O=C(CNc1ccc2nnc(-c3cccnc3)n2n1)N1CCC[C@H](c2nc(C3CCOCC3)no2)C1 | 0 | -0.09
